Experimental data reported in PubChem BioAssay AID1508623 (National Center for Advancing Translational Sciences (NCATS), 2021).
Out of some 48,000 compounds screened, about 450 (0.94%) were called active. Not shown: some 19% with an inconclusive outcome. Calls come from the whole dose curve; as a rule, active = well fitted inhibition curve with a large enough effect; inconclusive = small, poorly fitted or top-dose-only effect; inactive = no such curve, though single readings can be large or run the other way. The list shows a part of the results.

Assay: Primary qHTS for Identification of Small Molecule Inhibitors of Huntingtin Promoter Activity; note: nearly all actives have a fitted effect of over 50% in size
Details: HEK293 HTT promoter firefly luciferase reporter (activity 0% = vehicle and -100% = no light), 24 h; series mostly up to 57.5 µM; activity change, negative = inhibition: at the top concentration
In short: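 HEK293 Fluc reporter, 2,500 cells/well, 24 h pre-culture; cpds up to 57.5 uM final, 24 h 37 degrees C; Dual-Glo, 10 min RT; normalized vehicle = 0%, zero RLU = -100%.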

SMILES | activity change, negative = inhibition
Cc1ccc(C(=O)n2nc(C)c(S(=O)(=O)N3CCCCCC3)c2C)cc1C | inactive: -11.9%
CCc1nnc(NC(=O)CSc2nccn2Cc2ccc(C)cc2)s1 | inactive: -35.9%
COc1ccccc1NC(=O)CSc1nc(O)c(C/C=C/c2ccccc2)c(=O)[nH]1 | inactive: -16.9%
COc1ccc(CNC(=O)c2nc(SCc3ccc(C)cc3)ncc2Cl)cc1 | inactive: -27.1%
COc1ccc(Cn2c(=O)n(-c3ccc(F)c(Cl)c3)c(=O)c3c2c2cc(OC)ccc2n3C)cc1 | inactive: -3.77%
CCOC(=O)c1c(S(=O)(=O)N2CCC(C(=O)NCc3cccc(C)c3)CC2)c(C)n(C)c1C | inactive: -12.1%
Cc1ccc(OCc2nc(-c3ccc(C(=O)NCCc4ccc(Cl)cc4)cc3)oc2C)cc1 | inactive: -18.8%
Cc1ccc(NC(=O)CN2C(=O)CCc3ccccc32)cc1C | inactive: -17.6%
COc1ccc(NC(=O)c2nn(C)c3c2CS(=O)(=O)c2ccccc2-3)cc1Cl | inactive: -19.2%
Cc1ccccc1CN1C(=O)c2ccccc2Sc2ccc(C(=O)NC3CCCCC3)cc21 | inactive: 1.36%
CC(C)Nc1ccc(-c2nc(-c3ccncc3)no2)cc1[N+](=O)[O-] | inactive: 68.2%
COc1ccc(N(CC(=O)NC(C)c2ccccc2)S(=O)(=O)c2c(C)nn(C)c2C)cc1 (stereo not drawn) | inactive: -8.15%
COc1ccc(N2CCN(Cc3nc4c(c(=O)[nH]c(=O)n4C)n3Cc3ccc(C)cc3)CC2)cc1 | inactive: -12.3%
CCOC(=O)c1c(C)[nH]c(C)c1S(=O)(=O)N1CCCC(C(=O)N2CCN(c3ccccc3F)CC2)C1 (stereo not drawn) | inactive: -17.9%
CCc1nn(CC(=O)N2CCN(c3cccc(OC)c3)CC2)c(=O)c2cc3occc3n12 | inactive: -6.56%
CC1CN(C(=O)CCC(=O)NCc2cccc(Cl)c2)c2ccccc2S1 (stereo not drawn) | inactive: -32.4%
O=C(O)c1ccc(Cn2cnc3cccnc32)cc1 | inactive: -15.2%
CC1CCN(CC2CCN(C(=O)NCc3ccc(F)cc3)CC2)CC1 | inactive: -4.79%
COc1ccccc1C(=O)N(Cc1nc(-c2cccc(C)c2)no1)C(C)C | inactive: -27.2%
CCOc1ccc(C2C(C(=O)Nc3ccccc3)=C(C)Nc3nc(SCc4cccc(OC)c4)nn32)cc1 (stereo not drawn) | inactive: 6.07%
Cc1ccc(/C=C/c2onc(C)c2S(=O)(=O)N2CCC(C(=O)N3CCN(c4cccc(C)c4)C(C)C3)CC2)cc1 (stereo not drawn) | inactive: -25.1%
Cc1nn(C(C)C(=O)NC2CCC(C)CC2)c(=O)c2c1sc1ccccc12 (stereo not drawn) | inactive: -2.05%
CCc1nc(-c2cc(S(=O)(=O)N3CCN(c4ccc(OC)cc4)CC3)ccc2OC)no1 | inactive: -13%
CCc1ccc(OCc2nc(-c3ccc(-n4cccc4)cc3)no2)cc1 | inactive: 13.1%
C=CC(=O)Nc1ccc2ncnc(Nc3ccc(OCc4cccc(F)c4)c(Cl)c3)c2c1 | inactive: -18.8%

SMILES | activity change, negative = inhibition
O=S(=O)(NCCc1csc2nc(-c3ccccc3)nn12)c1cccs1 | inactive: -24.4%
CCOc1ccc(-c2cn3c(n2)sc2cc(C(=O)NCCc4ccc(OC)cc4OC)ccc23)cc1 | inactive: -15.9%
CC(Oc1c(Cl)cccc1Cl)C1=NCCN1 (stereo not drawn) | inactive: 10.5%
CCOc1ccccc1NC(=O)C(CC(C)C)NC(=O)C1CCC(C)CC1 (stereo not drawn) | inactive: -12.9%
COc1cccc2c1cc1c(=O)n(CC(=O)N3CCN(c4cccc(C(F)(F)F)c4)CC3)nc(C)n12 | inactive: -14.9%
O=C(COc1ccccc1Cl)Nc1nnc(S(=O)(=O)N2CCCC2)s1 | inactive: -14.5%
Cc1ccc(NC(=O)CCc2c(C)nn(-c3ccc(N4CCOCC4)nn3)c2C)c(C)c1 | inactive: -10.4%
COc1ccc(-n2nc3ccc(NC(=O)c4ccc(C#N)cc4F)cc3n2)cc1Cl | inactive: -1.95%
O=C(Nc1cccs1)Nc1ccc(F)cc1F | inactive: -10.6%
O=C(O)Cn1c(-c2cccs2)cc2cc(Cl)ccc21 | inactive: 3.01%
O=C(Nc1cccc(C(F)(F)F)c1)c1cc(-c2ccc(Cl)s2)nc2ccccc12 | inactive: -12.5%
COc1ccc(Cn2c(CO)cnc2SCC(=O)Nc2ccc3c(c2)OCCO3)cc1 | inactive: 4.71%
COc1cccc(COC(=O)c2ccc(-c3nnn(Cc4cccc(OC)c4)n3)cc2)c1 | inactive: 1.38%
CCOc1ccc(NC2SC(=O)N(Cc3ccccc3)C2=O)cc1 (stereo not drawn) | inactive: 1.4%
COc1cccc2sc(NC(=O)CS(=O)(=O)c3ccc(C)cc3)nc12 | inactive: -18.6%
Cn1c(-n2cccc2)c(-c2c(-c3ccc(F)cc3)[nH]c3c2c(=O)n(C)c(=O)n3C)c(=O)n(C)c1=O | inactive: 6.29%
COCCCNC(=O)Cn1nc(N2CCN(c3ccccc3)CC2)ccc1=O | inactive: 2.04%
CCCSc1oc(-c2ccco2)nc1S(=O)(=O)c1ccc(Br)cc1 | inactive: -20.7%
Cc1ccc(S(=O)(=O)n2nc(-c3ccc(Cl)cc3)nc2NCc2ccccc2)cc1 | inactive: -7.35%
CN(C)CC/C=C1\c2ccccc2COc2ccccc21 | inactive: -4.66%
CC1CCc2c(sc3nnn(Cc4cccc(C(=O)OC(C)C)c4)c(=O)c23)C1 (stereo not drawn) | inactive: -2.5%
CC(=O)N1CCc2c(sc3c2c(=O)n(-c2ccc(F)cc2)c(=O)n3Cc2ccc(C#N)cc2)C1 | inactive: -3.84%
CCOc1ccccc1CNC(=O)C1CCN(S(=O)(=O)c2c(C)noc2/C=C/c2ccccc2F)CC1 | inactive: -17.1%
CCn1c(C(=O)NCc2ccccc2OC)cc2sccc21 | inactive: -21.9%
CC1=C(c2ccc(C(C)C)cc2)S(=O)(=O)N=C1N1CCC(C(=O)NCc2ccccc2)CC1 | inactive: -30%

SMILES | activity change, negative = inhibition
COc1ccc(-n2ccnc(NCc3cccs3)c2=O)cc1OC | inactive: -17%
CCCCOc1ccc(S(=O)(=O)n2nc(C)c(S(=O)(=O)N3CCC(C)CC3)c2C)cc1 | inactive: -12.6%
CCCOC(=O)C(C)n1nnc2sc(-c3ccccc3)cc2c1=O (stereo not drawn) | inactive: 20.8%
Cc1ccn2c(Nc3ccc4c(c3)OCO4)c(-c3ccc(O)cc3)nc2c1 | inactive: 4.3%
CCCCN1CCCC1C(=O)Nc1c(C)cc(C)cc1C (stereo not drawn) | inactive: -0.445%
CCCN1CCN(c2ncnc3sc(C(=O)Nc4ccc(N(CC)CC)cc4C)c(C)c23)CC1 | inactive: -36.6%
COc1cccc(CNS(=O)(=O)c2cc(Br)cc3c2N(C(C)=O)C(C)C3)c1 (stereo not drawn) | inactive: -4.89%
O=C(CSCc1cnn(-c2ccccc2)c1-n1cccc1)NCc1ccccc1F | inactive: -31.8%
COc1cccc(CC(=O)NCc2ccc3c(c2)CCN3C(C)=O)c1 | inactive: -0.481%
CCc1ccccc1NC(=O)C1CCN(c2nn3c(=O)cc(C)nc3s2)CC1 | inactive: -15.7%
CN(C)S(=O)(=O)Nc1ccc(-c2cn3ccsc3n2)cc1 | inactive: 40.5%
CCc1ccc(-n2c(=O)c3c4c(sc3n(CC(=O)NCCCOC)c2=O)CCC4)cc1 | inactive: -15.5%
Cc1ccc2oc(C(=O)Nc3ccc(S(=O)(=O)N(C)Cc4ccccc4)cc3)cc(=O)c2c1 | inactive: -7.89% [at 11.5 µM]
Cc1ccc(-n2nc(C(=O)N3CCN(c4ccccc4)CC3)c(=O)n(C)c2=O)cc1 | inactive: 0.64%
COC(=O)c1ccccc1NC(=O)c1nc(S(=O)(=O)Cc2ccccc2F)ncc1Cl | inactive: -7.61%
C[C@]12CC[C@@H]3c4ccc(O)cc4CC[C@H]3[C@@H]1C[C@@H](O)[C@@H]2O | inactive: 1.59%
CC(NC(=O)c1ccc2nc(CCc3ccccc3)oc2c1)c1ccccc1 (stereo not drawn) | inactive: 7.22%
Cc1ccccc1Cn1c(C)c(CNCc2ccccc2)c(C(=O)O)c1C | inactive: -9.08%
O=C(NCCc1ccc(Cl)cc1)c1ccc2c(c1)N(Cc1ccccc1)CCS2 | inactive: -8.54%
COc1ccc(NC(=O)c2nc(SCc3ccccc3F)ncc2Cl)cc1 | inactive: 4.91%
Cc1ccc(C)c(NC(=O)CCc2c(C)n(C)c3cc(-c4ccccc4C)nn3c2=O)c1 | inactive: -9.8%
CC(C)c1ccc(C2=CC(c3cccc(Cl)c3)n3ncnc3N2)cc1 (stereo not drawn) | inactive: -36.9%
Cc1ccc(NC(=O)CCS(=O)(=O)c2cccc3nonc23)c(C)c1 | inactive: -8.01%
CCOc1ccc(NC(=O)Cn2c(CCC(=O)O)ccc2-c2ccc(Cl)cc2)cc1 | inactive: 0.0837%
Cc1ccc(C)c(Cn2c3ccccc3c3cnn(CC(=O)N4CCCCC4)c(=O)c32)c1 | inactive: 16.5%

SMILES | activity change, negative = inhibition
O=C(OCCN1CCOCC1)c1cccnc1Nc1cccc(C(F)(F)F)c1 | inactive: -2.84%
COc1ccc(Cl)cc1NC(=O)c1cc(S(=O)(=O)N2CCc3ccccc32)cn1C | inactive: -11.4%
Cc1cccc(-n2c(=O)c3ccccc3n(Cc3ccccc3C#N)c2=O)c1 | inactive: -25.4%
COc1cc2c(C(=O)N3CCN(c4cccc(C)c4)C(C)C3)cn(CC(C)C)c(=O)c2cc1OC (stereo not drawn) | inactive: -18.1%
Cc1nn(CCC(=O)NC(C)C)c(=O)c2nn(-c3ccccc3)c(C)c12 | inactive: 12.4%
O=C(CSc1nc2c([nH]c3ccccc32)c(=O)n1-c1cccc(Cl)c1)N1CCc2ccccc21 | inactive: -15.9%
Cc1ccc2nc(NCc3ccccc3Cl)c3nnnn3c2c1 | inactive: -5.38%
CC(C)(C)c1ccc(C(=O)CCCCl)cc1 | inactive: 24.7%
COc1cccc(C(=O)CN2CCN(S(=O)(=O)c3ccc(Cl)cc3)CC2)c1 | inactive: -4.4%
Cc1nc(N)sc1-c1ccnc(Nc2ccc(N3CCOCC3)cc2)n1 | inactive: -25.7%
COc1cc2ccccc2cc1C(=O)Nc1ccc2oc(-c3cc(Br)ccc3Cl)nc2c1 | inactive: -9.83%
O=C(CN1C(=O)CSc2ccc(S(=O)(=O)N3CCCCC3)cc21)NCc1ccc(F)cc1Cl | inactive: -28.5%
COc1cc(NC(=O)CCc2c(C)n(C)c3cc(-c4ccccc4C)nn3c2=O)cc(OC)c1OC | inactive: 1.01%
CCOc1ccccc1NC(=O)c1sc2nc3c(cc2c1N)CN(Cc1ccccc1)CC3 | inactive: -2.15%
CCc1cccc2c3c([nH]c12)C(CC)(CC(=O)O)OCC3 (stereo not drawn) | inactive
CCc1ccc(C2C(C(=O)Nc3ccccc3)=C(C)Nc3nc(SCC(=O)c4ccc(C)cc4)nn32)cc1 (stereo not drawn) | inactive: 2.51%
CC(=O)c1ccc(NC(=O)Cn2c3ncccc3c(=O)n2-c2ccc(C)cc2)cc1 | inactive: -24.6%
COc1ccc(NC(=O)c2cnc(SCC(=O)Nc3nc4ccc(C)cc4s3)n(C)c2=O)cc1 | inactive: 19.1%
Cc1ccc(-c2noc(CSc3nnc(-c4ccc(Cl)cc4)n3C)n2)cc1 | inactive: -27.1%
Cc1cccc(C(=O)NCC(c2ccc3c(c2)OCO3)N2CCOCC2)c1 (stereo not drawn) | inactive: -22.9%
O=C(c1ccco1)c1cn(CCOc2ccc(Cl)cc2)c2ccccc12 | inactive: 6.73%
Cc1noc(NS(=O)(=O)c2ccc(N)cc2)c1C | inactive
COc1ccc(C(CNC(=O)c2ccc(C)cc2)N2CCOCC2)cc1 (stereo not drawn) | inactive: -5.61%
